Test results taken from the supplement of paper PMC10126150.
Sequences with one replicate were seen in a single cluster, so their values are uncertain.

System: ATP
Test: switch fluorescence ratio, 500 uM ATP over buffer (Cy3 cluster intensity, sum of 5 cycles each) (fold (ratio)); higher = stronger signal-on switching upon ATP binding; sequences stand for … in TCGTCGGCAGCGTCAGATGTGTATAAGAGACAGTTTTTTTTTTTTTTTTTTTTTTTTT…TC
Details: aptamer strand: ATP DNA aptamer (quencher-CACCTGGGGGAGTATTGCGGAGGAAGG + anchor), 100 nM annealed; ATP concentration: 500 uM; one replicate
In short: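 Five buffer/ATP imaging cycles were run on Cy3-labelled switching-strand clusters on a modified Illumina MiSeq flow-cell, with NaOH stripping and re-annealing between cycles. In each cycle, clusters annealed to 100 nM quencher-labelled ATP aptamer were imaged in selection buffer, then after 15 min with 500 uM ATP at 22 °C. Per cluster, the fluorescence ratio is summed target-cycle over summed buffer-cycle Cy3 intensity, averaged per switch-domain sequence. Only clusters within 100-1000 RFU were kept.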
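Note: ATP exposure 15 min at 22 °C before imaging.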

Row | Sequence | switch fluorescence ratio
1 | GCCTGCCGGA | 1.08
2 | TTCCTTTCGT | 1.04
3 | AATTAAGAAT | 1
4 | AGGCAGTGAC | 0.981
5 | GTATGTTGGT | 0.945
6 | AATGGGGCCG | 0.988
7 | TTGTGCATAG | 1.08
8 | GCTTTCGTGG | 1.01
9 | TCGAGGGCGC | 1.04
10 | GGATCACAAG | 1
11 | GGCCGCATCA | 1.11
12 | AATTCCACAT | 1.02
13 | GAAGCACGAA | 1.17
14 | AAATTTAGTC | 1.01
15 | TATCGTGATT | 1.04
16 | TCCTTTAAAG | 1.04
17 | CAAGGCATCC | 1.08
18 | CTTGCTGTGG | 0.981
19 | TCATCCGGTT | 1.61
20 | ATGTCCCCTT | 0.965
21 | TAGCGGTTA | 0.989
22 | GCCGCGGGGG | 0.968
23 | CCTTCCGAC | 3.05
24 | GTGGTCAGCT | 0.975
25 | AACTGTTAAT | 1.01

Row | Sequence | switch fluorescence ratio
26 | CAAGTTCAGG | 1
27 | AAATCGGCT | 0.991
28 | TTAGAGAGTA | 0.987
29 | ACCATGTTGC | 1.01
30 | CGGTGTCTGG | 0.99
31 | ATAATTTCGC | 0.968
32 | AGATACTACC | 1.58
33 | TTTAACCGGA | 1.46
34 | AGAATCCACT | 1.02
35 | AAATGGAACG | 1.01
36 | AATGCCTGTT | 1.02
37 | AAGGGTCGTA | 1.04
38 | TGACCTGTTT | 1
39 | GGAGTGCCAA | 0.953
40 | ATGCGGGCTG | 0.985
41 | CGCGAGAAAG | 1.03
42 | GCTATTCAGC | 1.02
43 | GACCTTCTAG | 1.02
44 | CTTTGCAGGC | 1.22
45 | TCGGAGGCTC | 1.02
46 | CACTATCCT | 1.09
47 | CGGTTCAAGG | 0.98
48 | GGGGTGACGC | 1.01
49 | AACGTACCCT | 1.68
50 | CATGGAGAGT | 0.983

Row | Sequence | switch fluorescence ratio
51 | ATCGGAGCTT | 1.28
52 | CAGAAGAATA | 0.982
53 | AATGGCATAA | 1
54 | ATGATCGAGG | 1.01
55 | GCGTTGAGTT | 0.954
56 | AAGCGGCTAA | 0.997
57 | TCCGTACTGG | 1.06
58 | CCAACACATT | 1.09
59 | ATGCCTTGGT | 1.01
60 | ATTGAATCGG | 0.988
61 | AGGATACCCG | 0.995
62 | TAATAACGGG | 1.03
63 | GCTGGATCCC | 1.04
64 | AGAATAAGAA | 1.03
65 | AAATAAGCCG | 1.08
66 | GGGCAGGATC | 0.969
67 | TATGTGCGTA | 1.01
68 | GGCTCCTTCG | 1.28
69 | AGCCTGGGGT | 1.02
70 | AGTTTGTAAG | 1.01
71 | CTAGACTATG | 0.991
72 | GTCGAATGCT | 1.04
73 | TATTGCGAGG | 1.03
74 | GTGGATATGA | 1.02
75 | TATGCAGGCC | 0.964

Row | Sequence | switch fluorescence ratio
76 | TGCCTCGGGT | 1.02
77 | TATAAAAGCC | 1.02
78 | ATCATCTTAA | 0.989
79 | CAAGGGGGTC | 0.982
80 | AGGCGCGCGT | 1.01
81 | CTGCAGGTTT | 1.16
82 | ATCATGACCT | 1.32
83 | CGTGTTTATT | 1.01
84 | TACGGGGCT | 1.07
85 | TTAGTATGTG | 1.02
86 | GATAATGAAG | 1.03
87 | GCTACACCCG | 1.15
88 | TACTTGCAT | 1.11
89 | TGGATGTAT | 0.978
90 | GGTGGTTGGT | 0.983
91 | TTGAGGCCTC | 1.05
92 | TTTCGTTGTG | 1.01
93 | CGAGTGGTTC | 1
94 | TAGATTGCGG | 1.04
95 | CGTTCGTAAA | 1.11
96 | CCCGGCATAA | 3.79
97 | AGCATCCTCA | 1.06
98 | TAGTACTTGA | 1.03
99 | TTCGGCTTCT | 0.947
100 | TGAAAGTGC | 1.09

Row | Sequence | switch fluorescence ratio
101 | AGATTGTTGT | 0.973
102 | CGGTAGTACG | 0.952
103 | TTCTCTTATA | 1.02
104 | CGAATAACG | 1.06
105 | CCCGCGGCTA | 1.27
106 | TCTAGGGATT | 1.01
107 | GGTATTTCGG | 1
108 | ATGTGTTAGA | 1.06
109 | ACCGGAACGG | 1.05
110 | GCTTGTCGTA | 0.933
111 | CGAGGTTTTT | 1.02
112 | ATTCTGAGGA | 0.9
113 | TATCGAGCCT | 1
114 | GTTGGAAACG | 0.934
115 | CCGCGCCTTC | 3.21
116 | CAATAAAAC | 1.01
117 | ACTCTGCCAG | 1.48
118 | CTGGATGCCT | 0.984
119 | GTAACTATA | 1.07
120 | CAGGCGGAGG | 1.01
121 | GGGAATCCGT | 0.945
122 | TACTCCCATG | 1.59
123 | GACATTGAAG | 0.956
124 | CTCGCTAAGT | 1.09
125 | AACTTTCTCT | 1.04

Row | Sequence | switch fluorescence ratio
126 | TTAATAGG | 1.01
127 | GGGATGTCAA | 1.02
128 | GGAACAGGCA | 0.971
129 | TTCGGCTAC | 1.81
130 | CCGAGGGTCG | 1.01
131 | TTCCCCGCCT | 2.46
132 | TAACACCAAT | 1.03
133 | TTCGTGGGTA | 1.05
134 | ATGTTTTCGT | 0.97
135 | TTAAGTCATG | 0.983
136 | TTATCGGCTG | 0.99
137 | AGCTCACCTC | 1.1
138 | TTAGGAATTC | 1.09
139 | GTCAGGATCA | 0.995
140 | AATAGCATTC | 1.24
141 | GGTATACATT | 1.07
142 | TTCCATCGG | 1.04
143 | GTGGTGTGAC | 1.01
144 | GTAATTAGCG | 0.993
145 | GCGGGCTAAA | 0.996
146 | AGGGCCAGCA | 1.03
147 | GCGTTCGGCG | 1
148 | TAACGATTGT | 0.992
149 | GGCGGGTATC | 0.967
150 | TTTATATAGT | 0.946

Row | Sequence | switch fluorescence ratio
151 | GAGTCGAGGA | 1.03
152 | TCTTTTTCGG | 1.03
153 | AGAAGGGGCC | 0.971
154 | CATGATCA | 0.955
155 | TGATAGGTTT | 0.983
156 | TAGTACCGTA | 1.05
157 | CCTACATCAG | 1.05
158 | TTTTACGAT | 1.11
159 | AAAGTGTAGC | 1.05
160 | CGTTTCCAAC | 0.991
161 | TAGCAGCTAT | 0.999
162 | GCTACGCAGG | 1.65
163 | AGGAGCGAAA | 1
164 | GCACCGTACC | 1.57
165 | GCTCGCGAAT | 1.17
166 | CATATATGGC | 0.951
167 | CCCACTTCCT | 1.54
168 | AAGTTATTAT | 1.02
169 | AACAGACGTA | 1.07
170 | TAATGGGCAC | 1.12
171 | GAAGAGGGGC | 1.06
172 | CAGCATGGG | 1.05
173 | GGCACACTGG | 1.01
174 | GCTACGAAGG | 1.03
175 | CGAGGAAGTC | 1.08

Row | Sequence | switch fluorescence ratio
176 | GCGAGAACAG | 1.06
177 | AGCTGCATAT | 1.12
178 | ACCGCACCCC | 2.4
179 | GTGGCTTAAG | 1
180 | ATCACATTTG | 1.01
181 | ATCAGGAGCG | 1.02
182 | TGAGAATATG | 0.993
183 | CAGCCCGTGA | 1.07
184 | TTTGAACATT | 0.983
185 | TTCAATCGCT | 1.02
186 | TAAGAAAAAG | 1.11
187 | GAAAGCCGTC | 0.88
188 | ATCAGAGAGG | 1.01
189 | ATATAATATT | 0.964
190 | ATGGTTATCA | 1.01
191 | TACCTATGTA | 0.975
192 | TCCAATGGGT | 0.973
193 | CATTTTGCCT | 0.979
194 | CTCAAACCGA | 1.26
195 | CAGCAATTAG | 3.7
196 | ACCATTTACG | 1.16
197 | GCAATGTTCC | 3.93
198 | AGTCGTCGGG | 1.05
199 | TTAGAGTAGA | 0.996
200 | CACGAAGAGA | 1.02
